T1: AXL (Homo sapiens, UniProt P30530)
T1 sequence (P30530 26-894): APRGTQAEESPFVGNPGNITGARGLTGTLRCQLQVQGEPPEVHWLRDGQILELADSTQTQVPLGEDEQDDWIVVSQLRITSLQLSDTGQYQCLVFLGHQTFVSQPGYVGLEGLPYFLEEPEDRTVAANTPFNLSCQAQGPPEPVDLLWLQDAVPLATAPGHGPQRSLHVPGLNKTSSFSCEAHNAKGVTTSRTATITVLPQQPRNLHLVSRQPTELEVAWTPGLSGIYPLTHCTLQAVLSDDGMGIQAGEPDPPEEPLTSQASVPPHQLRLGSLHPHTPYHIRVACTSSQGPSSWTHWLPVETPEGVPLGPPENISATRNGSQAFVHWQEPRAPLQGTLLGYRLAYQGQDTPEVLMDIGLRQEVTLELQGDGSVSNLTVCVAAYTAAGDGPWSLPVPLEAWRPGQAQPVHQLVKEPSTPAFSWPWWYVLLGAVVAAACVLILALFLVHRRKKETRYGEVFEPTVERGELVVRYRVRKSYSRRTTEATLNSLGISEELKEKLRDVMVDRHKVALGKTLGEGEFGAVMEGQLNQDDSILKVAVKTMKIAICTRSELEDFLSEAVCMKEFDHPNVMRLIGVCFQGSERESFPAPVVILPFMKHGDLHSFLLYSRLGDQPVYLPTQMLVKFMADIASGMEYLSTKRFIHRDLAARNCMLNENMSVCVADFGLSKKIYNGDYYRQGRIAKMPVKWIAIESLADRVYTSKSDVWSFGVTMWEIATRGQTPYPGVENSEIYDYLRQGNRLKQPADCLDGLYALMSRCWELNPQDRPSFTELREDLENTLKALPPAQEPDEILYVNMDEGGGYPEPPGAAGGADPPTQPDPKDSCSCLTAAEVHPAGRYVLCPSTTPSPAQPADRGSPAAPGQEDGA


Columns and labels:
AXL [1] = target: T1, AXL; assay: AXL receptor tyrosine phosphorylation ELISA; type: cell-based; design: expressed in transfected cells; host or cells: NIH3T3-AXL cl.7 (pLXSN-hAXL) and NCI-H292 lung cancer cells (endogenous AXL); settings: 10 μg/ml antibody, 400 ng/ml Gas6; NIH3T3-AXL cl.7 fibroblasts and NCI-H292 lung cancer cells
Experimental: ELISA experiments were performed in order to investigate whether the rat anti-AXL antibodies of the invention are able to block ligand Gash-mediated activation of AXL. Gas6-mediated AXL activation was detected by increased receptor tyrosine phosphorylation. In brief, on day 1, 3×10^4 cells per well were seeded in normal growth medium in flat-bottom 96 well plates. The next day, growth medium was replaced by serum-free medium to starve cells over night for 24 h. Also over night, black Maxi-Sorp 96 well plates (Nunc) were coated with mouse anti-phospho-tyrosine antibody 4G10 at 2 μg/ml PBS and 4° C. On day 3, the 4G10 antibody solution was removed and Maxi-Sorp wells were blocked with PBS, 0.5% BSA for at lest 4 h at room temperature. […] Medium was then flicked out and cells were lysed in lysis buffer (50 mM HEPES, pH 7.5, 150 mM NaCl, 1 mM EDTA, 10% glycerine, and 1% Triton X-100) supplemented with phosphatase and protease inhibitors (10 mM Na4P2O7, 1 mM phenylmethylsulfonyl fluoride, 1 mM orthovanadate, 1 mM NaF, and 0.5% aprotinin) for 30 min on ice. […] Using a Victor plate reader (Perkin Elmer), the fluorescence of each well was collected at an excitation wavelength of 430 nm and an emission wavelength of 580 nm.

AXL [2] = target: T1, AXL; assay: Axl phosphorylation ELISA, rat versus chimeric antibody; type: cell-based; design: endogenous in cells; host or cells: CaSki cervical cancer cells
Experimental: In order to investigate whether the rat anti-Axl antibodies of the invention and the corresponding chimeric anti-Axl antibodies of the invention were able to inhibit ligand Gas6-mediated Axl activation in vitro to similar extent, ELISA experiments on CaSki cervical cancer cells were performed. Gas6-mediated Axl activation was thereby detected by increased receptor tyrosine phosphorylation. In brief, on day 1, 3×10^4 cells per well were seeded in normal growth medium in flat-bottom 96 well plates. The next day, growth medium was replaced by serum-free medium to starve cells over night for 24 h. Also over night, black Maxi-Sorp 96 well plates (Nunc) were coated with mouse anti-phospho-tyrosine antibody 4G10 at 2 μg/ml PBS and 4° C. On day 3, the 4G10 antibody solution was removed and Maxi-Sorp wells were blocked with PBS, 0.5% BSA for at lest 4 h at room temperature. In parallel, cells were pre-incubated with 50 ng/ml, 100 ng/ml, 300 ng/ml, 750 ng/ml, 1 μg/ml, and 10 μg/ml of rat anti-Axl antibody 11B7 or chimeric anti-Axl antibody ch11B7 for 1 h at 37° C. and subsequently treated with or without 400 ng/ml Gas6 (R&D Systems) for 10 min at 37° C. […] Using a Victor plate reader (Perkin Elmer), the fluorescence of each well was collected at an excitation wavelength of 430 nm and an emission wavelength of 580 nm.

Row | Molecule | ligand-mediated AXL activation (phosphorylation) (AXL [1]) | ligand-induced Axl activation (relative Axl phosphorylation), concentration-dependent (AXL [2]; 50 ng/ml to 10 μg/ml antibody, 400 ng/ml Gas6, CaSki cervical cancer cells) | ligand-induced Axl activation in melanoma cell line C-8161 (AXL [2]; same experimental settings, C-8161)
1 | 11D5: antagonistic rat anti-AXL monoclonal antibody, rat IgG2a (antibody, 11D5 HC gamma1; 11D5 LC kappa, antagonistic rat anti-AXL monoclonal antibody, rat IgG2a) heavy: EVQLQESGPGLVKPSQSLSLTCSVTGYSITSNYWGWIRKFPGNKMEWIGHITNSGNTTYNPSLKSRISISRDTSRNQFFLQLNSVTTEDTATYYCAKGAFDYWGQGVMVTVSS[left out - human IgG1 constant region] light: DIQMTQSPSSMSTSLGDRVTITCRASQDIGNYLSWFQQKVGKSPRRMIYGAIKLAVGVPSRFSGSRSGSDYSLTISSLESEDMAIYYCLQYIQFPLTFGSGTKLELKRTVAAPSVFIFPPSDEQLKSGTASVVCLLNNFYPREAKVQWKVDNALQSGNSQESVTEQDSKDSTYSLSSTLTLSKADYEKHKVYACEVTHQGLSSPVTKSFNRGEC | able to block or reduce ligand-mediated AXL activation |  | 
2 | ch11B7: chimeric anti-AXL antibody, derivative of rat 11B7 (antibody) heavy: EVQLQESGPGLVKPSQSLSLTCSVTGYSITSNYWGWIRKFPGDKMEWMGYITYSGSTSYNPSLKSRISITRDTSKNQFFLQLNSVTSEDTATYYCAITTFYYWGQGVMVTVSS[left out - human IgG1 constant region] light: DIQMTQAPSSLPASLGDRVTITCRASQDIGNYLRWFQQKPGKSPRLMISGATNLAAGVPSRFSGSRSGSDYSLTISSLESEDMADYYCLQSKESPWTFGGGTKLELKRTVAAPSVFIFPPSDEQLKSGTASVVCLLNNFYPREAKVQWKVDNALQSGNSQESVTEQDSKDSTYSLSSTLTLSKADYEKHKVYACEVTHQGLSSPVTKSFNRGEC |  | able to block ligand-induced activation of the receptor tyrosine kinase Axl to similar extent | Comparable effects
